# Assay results from the supplement of paper PMC8728848.
# This is one part of the list.
# What was measured:
# Experiment in all cases: glycan array binding signal (z-score within array); higher = stronger binding
# Conditions in all cases: glycan notation: IUPAC condensed, linker removed
# [1] = target: Fuc(a1-2)Gal
# Summary of the method: (§1)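 Columns mapping to the same glycan were averaged after glycan names were converted to IUPAC-condensed notation. The data come from 3228 arrays in the Consortium for Functional Glycomics database, limited to those with an available protein sequence. Binding is reported as a within-array Z-score averaged across arrays of one protein sequence and across linkers.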
# [2] = target: Fuc(a1-2)Gal(b1-3)GalNAc
# Summary of the method: as §1
# [3] = target: Fuc(a1-2)Gal(b1-3)GalNAc(a1-3)[Fuc(a1-2)]Gal(b1-4)Glc
# Summary of the method: as §1
# [4] = target: Fuc(a1-2)Gal(b1-3)GalNAc(a1-3)[Fuc(a1-2)]Gal(b1-4)GlcNAc
# Summary of the method: as §1
# [5] = target: Fuc(a1-2)Gal(b1-3)GalNAc(b1-3)Gal
# Summary of the method: as §1
# [6] = target: Fuc(a1-2)Gal(b1-3)GalNAc(b1-3)Gal(a1-4)Gal(b1-4)Glc
# Summary of the method: as §1
# [7] = target: Fuc(a1-2)Gal(b1-3)GalNAc(b1-4)[Neu5Ac(a2-3)]Gal(b1-4)Glc
# Summary of the method: as §1
# [8] = target: Fuc(a1-2)Gal(b1-3)GlcNAc
# Summary of the method: as §1
# [9] = target: Fuc(a1-2)Gal(b1-3)GlcNAc(b1-2)Man(a1-3)[Fuc(a1-2)Gal(b1-3)GlcNAc(b1-2)Man(a1-6)]Man(b1-4)GlcNAc(b1-4)GlcNAc
# Summary of the method: as §1
# [10] = target: Fuc(a1-2)Gal(b1-3)GlcNAc(b1-2)Man(a1-3)[Fuc(a1-2)Gal(b1-3)GlcNAc(b1-2)Man(a1-6)]Man(b1-4)GlcNAc(b1-4)[Fuc(a1-6)]GlcNAc
# Summary of the method: as §1
# [11] = target: Fuc(a1-2)Gal(b1-3)GlcNAc(b1-3)Gal(b1-4)Glc
# Summary of the method: as §1
# [12] = target: Fuc(a1-2)Gal(b1-3)GlcNAc(b1-3)GalNAc
# Summary of the method: as §1
# [13] = target: Fuc(a1-2)Gal(b1-3)GlcNAc(b1-3)[Fuc(a1-2)Gal(b1-3)GlcNAc(b1-6)]GalNAc
# Summary of the method: as §1
# [14] = target: Fuc(a1-2)Gal(b1-3)GlcNAc(b1-3)[Gal(b1-4)GlcNAc(b1-6)]Gal(b1-4)Glc
# Summary of the method: as §1
# [15] = target: Fuc(a1-2)Gal(b1-3)GlcNAc(b1-3)[Neu5Ac(a2-6)Gal(b1-4)GlcNAc(b1-6)]Gal(b1-4)Glc
# Summary of the method: as §1
# [16] = target: Fuc(a1-2)Gal(b1-3)GlcNAc6S
# Summary of the method: as §1
# [17] = target: Fuc(a1-2)Gal(b1-3)[Fuc(a1-4)]GlcNAc
# Summary of the method: as §1
# [18] = target: Fuc(a1-2)Gal(b1-3)[Fuc(a1-4)]GlcNAc(b1-2)Man(a1-3)[Fuc(a1-2)Gal(b1-3)[Fuc(a1-4)]GlcNAc(b1-2)Man(a1-3)]Man(b1-4)GlcNAc(b1-4)GlcNAc
# Summary of the method: as §1
# [19] = target: Fuc(a1-2)Gal(b1-3)[Fuc(a1-4)]GlcNAc(b1-2)Man(a1-3)[Fuc(a1-2)Gal(b1-3)[Fuc(a1-4)]GlcNAc(b1-2)Man(a1-6)]Man(b1-4)GlcNAc(b1-4)[Fuc(a1-6)]GlcNAc(b1-4)[Fuc(a1-6)]GlcNAc
# Summary of the method: as §1
# [20] = target: Fuc(a1-2)Gal(b1-3)[Fuc(a1-4)]GlcNAc(b1-3)[Fuc(a1-3)[Gal(b1-4)]GlcNAc(b1-6)]Gal(b1-4)Glc
# Summary of the method: as §1
# [21] = target: Fuc(a1-2)Gal(b1-3)[Fuc(a1-4)]GlcNAc(b1-3)[Gal(b1-4)GlcNAc(b1-6)]Gal(b1-4)Glc
# Summary of the method: as §1
# [22] = target: Fuc(a1-2)Gal(b1-4)Fuc(a1-3)]GlcNAc(b1-2)Man(a1-3)[Fuc(a1-2)Gal(b1-4)[Fuc(a1-3)]GlcNAc(b1-2)Man(a1-6)]Man(b1-4)GlcNAc(b1-4)GlcNAc
# Summary of the method: as §1
# [23] = target: Fuc(a1-2)Gal(b1-4)Glc
# Summary of the method: as §1
# [24] = target: Fuc(a1-2)Gal(b1-4)Glc6S
# Summary of the method: as §1
# [25] = target: Fuc(a1-2)Gal(b1-4)GlcNAc
# Summary of the method: as §1
# [26] = target: Fuc(a1-2)Gal(b1-4)GlcNAc(b1-2)Man
# Summary of the method: as §1
# [27] = target: Fuc(a1-2)Gal(b1-4)GlcNAc(b1-2)Man(a1-3)[Fuc(a1-2)Gal(b1-4)GlcNAc(b1-2)Man(a1-6)]Man(b1-4)GlcNAc(b1-4)GlcNAc
# Summary of the method: as §1
# [28] = target: Fuc(a1-2)Gal(b1-4)GlcNAc(b1-2)Man(a1-3)[Fuc(a1-2)Gal(b1-4)GlcNAc(b1-2)Man(a1-6)]Man(b1-4)GlcNAc(b1-4)[Fuc(a1-6)]GlcNAc
# Summary of the method: as §1
# [29] = target: Fuc(a1-2)Gal(b1-4)GlcNAc(b1-2)[Fuc(a1-2)Gal(b1-4)GlcNAc(b1-4)]Man(a1-3)[Fuc(a1-2)Gal(b1-4)GlcNAc(b1-2)Man(a1-6)]Man(b1-4)GlcNAc(b1-4)GlcNAc
# Summary of the method: as §1
# [30] = target: Fuc(a1-2)Gal(b1-4)GlcNAc(b1-3)Gal(b1-4)GlcNAc
# Summary of the method: as §1
# [31] = target: Fuc(a1-2)Gal(b1-4)GlcNAc(b1-3)Gal(b1-4)GlcNAc(b1-2)Man(a1-3)[Fuc(a1-2)Gal(b1-4)GlcNAc(b1-3)Gal(b1-4)GlcNAc(b1-2)Man(a1-6)]Man(b1-4)GlcNAc(b1-4)GlcNAc
# Summary of the method: as §1
# [32] = target: Fuc(a1-2)Gal(b1-4)GlcNAc(b1-3)Gal(b1-4)GlcNAc(b1-3)Gal(b1-4)GlcNAc
# Summary of the method: as §1
# [33] = target: Fuc(a1-2)Gal(b1-4)GlcNAc(b1-3)GalNAc
# Summary of the method: as §1
# [34] = target: Fuc(a1-2)Gal(b1-4)GlcNAc(b1-3)[Fuc(a1-2)Gal(b1-4)GlcNAc(b1-6)]GalNAc
# Summary of the method: as §1
# [35] = target: Fuc(a1-2)Gal(b1-4)GlcNAc(b1-3)[Fuc(a1-3)[Gal(b1-4)]GlcNAc(b1-6)]Gal(b1-4)Glc
# Summary of the method: as §1
# [36] = target: Fuc(a1-2)Gal(b1-4)GlcNAc(b1-6)GalNAc
# Summary of the method: as §1
# [37] = target: Fuc(a1-2)Gal(b1-4)GlcNAc6S
# Summary of the method: as §1
# [38] = target: Fuc(a1-2)Gal(b1-4)[Fuc(a1-3)]GlcNAc
# Summary of the method: as §1
# [39] = target: Fuc(a1-2)Gal(b1-4)[Fuc(a1-3)]GlcNAc(b1-2)Man(a1-3)[Fuc(a1-2)Gal(b1-4)[Fuc(a1-3)]GlcNAc(b1-2)Man(a1-6)]Man(b1-4)GlcNAc(b1-4)[Fuc(a1-6)]GlcNAc
# Summary of the method: as §1
# [40] = target: Fuc(a1-2)Gal(b1-4)[Fuc(a1-3)]GlcNAc(b1-2)[Fuc(a1-2)Gal(b1-4)[Fuc(a1-3)]GlcNAc(b1-4)]Man(a1-3)[Fuc(a1-2)Gal(b1-4)[Fuc(a1-3)]GlcNAc(b1-2)Man(a1-6)]Man(b1-4)GlcNAc(b1-4)GlcNAc
# Summary of the method: as §1
# [41] = target: Fuc(a1-2)Gal(b1-4)[Fuc(a1-3)]GlcNAc(b1-3)Gal(b1-4)[Fuc(a1-3)]GlcNAc
# Summary of the method: as §1
# [42] = target: Fuc(a1-2)Gal(b1-4)[Fuc(a1-3)]GlcNAc(b1-3)Gal(b1-4)[Fuc(a1-3)]GlcNAc(b1-3)Gal(b1-4)[Fuc(a1-3)]GlcNAc
# Summary of the method: as §1
# [43] = target: Fuc(a1-2)Gal(b1-4)[Fuc(a1-3)]GlcNAc(b1-3)GalNAc
# Summary of the method: as §1
# [44] = target: Fuc(a1-2)Gal(b1-4)[Fuc(a1-3)]GlcNAc(b1-3)[Neu5Ac(a2-6)Gal(b1-4)GlcNAc(b1-6)]Gal(b1-4)Glc
# Summary of the method: as §1
# [45] = target: Fuc(a1-2)Gal3S(b1-4)GlcNAc
# Summary of the method: as §1
binder,measurement,setting,value
"CGL (Crenomytilus grayanus), H2FH31 (protein) MTTFLIKHKASGKFLHPYGGSSNPANNTKLVLHSDIHERMYFQFDVVDERWGYIKHVASGKIVHPYGGQANPPNETNMVLHQDRHDRALFAMDFFNDNIMHKGGKYIHPKGGSPNPPNNTETVIHGDKHAAMEFIFVSPKNKDKRVLVYA",glycan array binding signal (z-score),[1],0.532
same,glycan array binding signal (z-score),[2],-0.364
same,glycan array binding signal (z-score),[3],-0.387
same,glycan array binding signal (z-score),[4],-0.342
same,glycan array binding signal (z-score),[5],-0.345
same,glycan array binding signal (z-score),[6],-0.364
same,glycan array binding signal (z-score),[7],-0.326
same,glycan array binding signal (z-score),[8],-0.382
same,glycan array binding signal (z-score),[9],-0.195
same,glycan array binding signal (z-score),[10],-0.334
same,glycan array binding signal (z-score),[11],-0.358
same,glycan array binding signal (z-score),[12],-0.419
same,glycan array binding signal (z-score),[13],0.622
same,glycan array binding signal (z-score),[14],-0.054
same,glycan array binding signal (z-score),[15],-0.433
same,glycan array binding signal (z-score),[16],-0.43
same,glycan array binding signal (z-score),[17],-0.372
same,glycan array binding signal (z-score),[18],-0.309
same,glycan array binding signal (z-score),[19],-0.416
same,glycan array binding signal (z-score),[20],-0.386
same,glycan array binding signal (z-score),[21],-0.302
same,glycan array binding signal (z-score),[22],-0.343
same,glycan array binding signal (z-score),[23],-0.372
same,glycan array binding signal (z-score),[24],-0.242
same,glycan array binding signal (z-score),[25],-0.283
same,glycan array binding signal (z-score),[26],-0.309
same,glycan array binding signal (z-score),[27],-0.063
same,glycan array binding signal (z-score),[28],-0.357
same,glycan array binding signal (z-score),[29],-0.249
same,glycan array binding signal (z-score),[30],-0.106
same,glycan array binding signal (z-score),[31],0.855
same,glycan array binding signal (z-score),[32],-0.056
same,glycan array binding signal (z-score),[33],-0.281
same,glycan array binding signal (z-score),[34],-0.067
same,glycan array binding signal (z-score),[35],-0.371
same,glycan array binding signal (z-score),[36],0.218
same,glycan array binding signal (z-score),[37],-0.242
same,glycan array binding signal (z-score),[38],-0.391
same,glycan array binding signal (z-score),[39],-0.302
same,glycan array binding signal (z-score),[40],-0.274
same,glycan array binding signal (z-score),[41],-0.409
same,glycan array binding signal (z-score),[42],-0.344
same,glycan array binding signal (z-score),[43],-0.375
same,glycan array binding signal (z-score),[44],-0.372
same,glycan array binding signal (z-score),[45],-0.399
